Laboratory results published in PubChem BioAssay AID504332 (National Center for Advancing Translational Sciences (NCATS), 2011).
Hit rate of the full screen: of about 350,000 compounds, about 31,000 (8.9%) were called active. This list was built around the results that the source calls inconclusive (neither active nor inactive); the mix of calls is not that of the screen. Calls follow the shape of the dose curve; as a rule, active = well fitted inhibition curve with a large enough effect; inconclusive = small, poorly fitted or top-dose-only effect; inactive = no such curve, though single readings can be large or run the other way. Potencies beside an inconclusive call are fits to weak or partial responses and may not hold up.

Biological target: Histone-lysine N-methyltransferase EHMT2 (Homo sapiens) (UniProt Q96KQ7)
Test: qHTS Assay for Inhibitors of Histone Lysine Methyltransferase G9a; also: nearly all actives have a fitted effect of over 75% in size
Conditions: G9a H3K9 monomethylation, AlphaScreen, 2 h; activity, negative = inhibition: at 59 µM (top of the series) unless noted
In short: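 AlphaScreen read-out: biotin-H3K9 peptide (500 nM) methylation by 20 nM enzyme with 20 uM SAM, 2 h at room temperature after 15 min compound preincubation; anti-monomethyl H3K9 antibody plus donor/acceptor beads, 10 min dark.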
% is scaled to controls: 0 for no effect and ±100 for the full control effect; potency is read from the fitted curve at half-maximal effect; tags tell the direction and shape of the fitted curve.

Sequence of UniProt Q96KQ7 (Q96KQ7 whole entry, looked up): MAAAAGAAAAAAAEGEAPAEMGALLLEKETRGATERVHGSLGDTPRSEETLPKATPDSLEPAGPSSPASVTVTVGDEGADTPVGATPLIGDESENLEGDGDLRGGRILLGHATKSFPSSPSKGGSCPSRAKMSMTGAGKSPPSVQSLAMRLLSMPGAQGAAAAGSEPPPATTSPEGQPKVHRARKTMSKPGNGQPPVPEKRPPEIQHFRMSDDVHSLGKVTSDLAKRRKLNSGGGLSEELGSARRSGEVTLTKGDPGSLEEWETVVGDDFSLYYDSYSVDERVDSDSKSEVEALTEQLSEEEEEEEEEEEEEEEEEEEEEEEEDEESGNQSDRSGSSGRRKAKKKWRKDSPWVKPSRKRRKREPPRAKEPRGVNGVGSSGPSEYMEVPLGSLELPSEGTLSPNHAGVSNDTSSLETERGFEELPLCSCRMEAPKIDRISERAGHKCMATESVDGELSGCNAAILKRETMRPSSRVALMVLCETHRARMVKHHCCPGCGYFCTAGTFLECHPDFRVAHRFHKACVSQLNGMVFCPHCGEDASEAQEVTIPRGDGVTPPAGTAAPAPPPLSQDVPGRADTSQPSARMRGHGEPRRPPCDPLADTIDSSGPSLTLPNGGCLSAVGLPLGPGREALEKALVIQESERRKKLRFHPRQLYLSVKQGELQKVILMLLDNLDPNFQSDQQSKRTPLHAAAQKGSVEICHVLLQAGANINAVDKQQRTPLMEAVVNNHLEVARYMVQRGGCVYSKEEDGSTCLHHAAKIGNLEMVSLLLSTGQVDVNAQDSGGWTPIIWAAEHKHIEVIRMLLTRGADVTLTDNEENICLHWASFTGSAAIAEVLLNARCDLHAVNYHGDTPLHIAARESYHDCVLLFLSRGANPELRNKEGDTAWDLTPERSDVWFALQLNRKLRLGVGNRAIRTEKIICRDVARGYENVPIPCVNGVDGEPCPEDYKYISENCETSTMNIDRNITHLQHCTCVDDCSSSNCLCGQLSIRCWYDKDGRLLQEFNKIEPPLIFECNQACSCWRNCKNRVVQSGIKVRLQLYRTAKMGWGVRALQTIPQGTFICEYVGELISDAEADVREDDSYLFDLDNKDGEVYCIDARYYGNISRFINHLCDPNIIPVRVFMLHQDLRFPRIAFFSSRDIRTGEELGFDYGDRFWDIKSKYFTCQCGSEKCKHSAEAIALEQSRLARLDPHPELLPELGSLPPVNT

Compound | Potency | activity, negative = inhibition
OCCn1c(-c2ccccc2)csc1=Nc1ccccc1 | active: 44.7 µM | –
COC(=O)c1sc(NC(=O)CC(C)C)c(C(=O)OC)c1C | – | inactive: 19.4% [at 102 µM]
O=C(NC(=S)NCCO)c1sc2ccccc2c1Cl | active: 25.1 µM | –
COc1ccc(CNCc2cccc(OC)c2OC)cc1Br | active: 10 µM | –
COc1ccc(OC)c(NC(=O)Cn2cc(C=O)c3ccccc32)c1 | inconclusive: 0.631 µM [inhibitor, partial curve, poor fit] | –
COc1cc2[nH]c(=S)n(CCN3CCCCC3C)c(=O)c2cc1OC (stereo not drawn) | – | inconclusive: -88.3% [inhibitor]
CCOc1cc(S(=O)(=O)NCCCN2CCOCC2)c(C)cc1C | inconclusive: 31.6 µM [inhibitor, partial curve, poor fit] | –
Cc1ccc(CN(C)c2nc(-c3cccnc3)nc3ccccc23)o1 | active: 39.8 µM | –
CN(NC(=O)/C=C/C(=O)O)c1ncc(C(F)(F)F)cc1Cl | active: 6.31 µM | –
CC12CCC(C(=O)NCc3ccc(Cl)cc3)(OC1=O)C2(C)C (stereo not drawn) | inconclusive: 28.2 µM [inhibitor, single point] | –
COc1ccc(NC(=O)[C@H](C)NC(=O)C2CCN(S(=O)(=O)c3ccc(OC)cc3)CC2)cc1 | – | inactive: -9.75% [at 0.501 µM]
Cc1cc(C)nc(SCC(=O)Nc2ncc3c(n2)CC(C)(C)CC3=O)n1 | inconclusive: 79.4 µM [inhibitor, single point] | –
CC(C)[C@H](NC(=O)OCc1ccccc1)C(=O)OCC(=O)N1CCN(c2ccccc2)CC1 | inconclusive: 79.4 µM [inhibitor, partial curve, poor fit] | –
c1ccc(Cc2cc[n+](Cc3ccccc3)cc2)cc1 | inconclusive: 79.4 µM [inhibitor, single point] | –
CCN1C(=O)[C@H]2[C@@H](c3ccc(-c4cc(C(C)=O)cs4)cc3)N3CCC[C@@]3(C(=O)OC)[C@H]2C1=O | – | inactive: 27.9% [at 2.33 µM]
Cc1sc2nc(CSC(C)C(=O)Nc3cc(S(C)(=O)=O)ccc3Cl)[nH]c(=O)c2c1C (stereo not drawn) | active: 50.1 µM | –
CC(=O)c1ccc(NC(=O)CSc2cn(CC(=O)N3CCCCCC3)c3ccccc23)cc1 | – | inactive: -39%
CCOC(=O)[C@H]1[C@H]2COc3ccc(C)cc3[C@@H]2N2C(=O)[C@@H](C)NC(=O)[C@@]12C | – | inactive: 3.86% [at 0.501 µM]
Cc1ccc(C)c(-n2cc(CN3CCNC(=O)CC3)c(-c3ccccc3)n2)c1 | inconclusive: 89.1 µM [inhibitor, single point] | –
CCOc1ccccc1N1CC(C(=O)Nc2cccc(S(=O)(=O)N3CCCCC3)c2)CC1=O (stereo not drawn) | inconclusive: 63.1 µM [inhibitor, partial curve, poor fit] | –
Cc1ccc2cc(CN(Cc3ccco3)C(=O)NC3CCCCC3)c(=O)[nH]c2c1C | inconclusive: 39.8 µM [inhibitor, single point] | –
COC(=O)c1c(NS(C)(=O)=O)sc2c1CCCC2 | inconclusive: 3.55 µM [inhibitor, single point] | –
O=C(C1=C[C@H](c2ccc3c(c2)OCO3)C[C@H](OCCCCO)O1)N1CCN(Cc2ccccc2)CC1 | – | inconclusive: -87.8% [inhibitor]

Compound | Potency | activity, negative = inhibition
Clc1ccc2nncn2n1 | inconclusive: 31.6 µM [inhibitor, partial curve, poor fit] | –
C(=N\N1CCN(c2ccccn2)CC1)/c1ccco1 | inconclusive: 44.7 µM [inhibitor, partial curve] | –
COc1ccccc1NC(=O)COC(=O)c1cc(C)nc2ccccc12 | inconclusive: 8.91 µM [inhibitor, single point] | –
O=C(NCCCn1ccnc1)/C(=C/c1ccco1)NC(=O)c1cccs1 | inconclusive: 89.1 µM [inhibitor, single point] | –
CC(C)CN1CC[C@@]2(CCCN(C(=O)c3csnn3)C2)C1 | inconclusive: 3.55 µM [inhibitor, single point] | –
Cc1cc(C)c(C#N)c(SCc2[nH]nc3c2C(c2ccc(F)cc2)C(C#N)=C(N)O3)n1 (stereo not drawn) | inconclusive: 39.8 µM [inhibitor, single point] | –
O=c1c2ccc(Cl)cc2[nH]c(=S)n1CCCN1CCOCC1 | active: 44.7 µM | –
CC1=C(C(=O)Nc2ccccc2)C(c2sccc2C)n2nnnc2N1 (stereo not drawn) | inconclusive: 79.4 µM [inhibitor, single point] | –
COc1cccc(CNC(=O)C2CCN(S(=O)(=O)c3cn(C)cn3)CC2)c1 | – | inactive: 13.9%
COc1ccc(Nc2nc(OC)nc(N3CCN(c4ccc(OC)cc4)CC3)n2)cc1 | inconclusive: 1.58 µM [inhibitor, partial curve, poor fit] | –
CSC1=C(C#N)C(c2ccc(Cl)cc2)C2=C(CC(C)(C)CC2=O)N1 (stereo not drawn) | inconclusive: 39.8 µM [inhibitor, single point] | –
O=C(CC1C(=O)OCCN1Cc1ccccc1)Nc1cccc(C(F)(F)F)c1 (stereo not drawn) | – | inactive: -59.7%
COc1ccc(C(=O)NNC(=S)NC(=O)C(C)(C)C)cc1 | inconclusive: 50.1 µM [inhibitor, partial curve, poor fit] | –
Cc1c(C(=O)O)[nH]c2ccc([N+](=O)[O-])cc12 | inconclusive: 56.2 µM [inhibitor, partial curve, poor fit] | –
COc1c(OC)c2[nH]c(=O)cc3c4ccccc4n(c1=O)c23 | – | inactive: -6.59% [at 12.7 µM]
CCc1sc(Nc2cccc(Cl)c2C)nc1-c1cc2cccc(OC)c2oc1=O | – | inactive: 5.22%
Cn1c(-c2ccccc2)c(/C=N/NC(=O)c2ccc(O)cc2)c2ccccc21 | – | inactive: -33.8% [at 102 µM]
Oc1ccc(Cl)cc1C1=Nc2ccccc2N=C(c2cccc(Br)c2)C1 | – | inactive: 53.2%
CCOC(=O)C1CCN(C/C=C/c2ccccc2OC)CC1 | inconclusive: 1.41 µM [inhibitor, single point] | –
CCOc1ccc(CC(=O)NNC(=S)Nc2ccccc2)cc1Br | active: 25.1 µM | –
O=C(c1coc(=O)c(Br)c1)N1CCOCC1 | – | inconclusive: -130% [inhibitor]
COCCCn1c(=S)[nH]c2ncccc2c1=O | active: 44.7 µM | –
Cc1ccccc1Nc1nnc(SCC(=O)NC(=O)Nc2ccc3c(c2)OCCO3)s1 | inconclusive: 3.16 µM [inhibitor, partial curve, poor fit] | –

Compound | Potency | activity, negative = inhibition
CCS(=O)(=O)N1CCC(C(=O)Nc2cc([N+](=O)[O-])ccc2C)CC1 | – | inactive: -7.57% [at 102 µM]
CCNC(=O)C1CC(=O)N(Cc2ccc3c(c2)OCO3)C(=Nc2ccc(OCC)cc2)S1 (stereo not drawn) | – | inactive: 0.138% [at 12.7 µM]
Nc1nc(-c2ccc(F)cc2)cs1 | active: 44.7 µM | –
COc1cccc(NC(=O)Cn2cc(S(=O)(=O)N3CCCC3)c(S(=O)(=O)N3CCCC3)c2)c1 | – | inactive: -7.25%
O=C(O)C(NS(=O)(=O)c1cccc2nsnc12)c1ccccc1 (stereo not drawn) | inconclusive: 89.1 µM [inhibitor, single point] | –
CCOc1ccc(-c2nc(CSCC(=O)N3CCN(c4cccc(OC)c4)CC3)c(C)o2)cc1 | inconclusive: 35.5 µM [inhibitor, partial curve, poor fit] | –
O=C(O)c1ccccc1-c1csc(-c2ccccc2)n1 | – | inactive: -7.24% [at 102 µM]
CCNS(=O)(=O)c1ccc(CCC(=O)NCc2ccc(C)cc2)cc1 | inconclusive: 89.1 µM [inhibitor, partial curve, poor fit] | –
COc1cccc(-c2nc(CS(=O)(=O)CC(=O)NC3CCC(C)CC3)c(C)o2)c1 (stereo not drawn) | – | inactive: -9.64% [at 102 µM]
CCCn1c(C(C)Nc2nc(-c3ccc(C)cc3)cs2)nc2cc(Cl)c(Cl)cc21 (stereo not drawn) | inconclusive: 100 µM [inhibitor, single point] | –
CS(=O)(=O)Nc1ccc(C2=NN(C(=O)c3ccco3)C(c3ccccc3F)C2)cc1 (stereo not drawn) | active: 50.1 µM | –
N/C(=N\OC(=O)CCCOc1ccccc1)c1ccc([N+](=O)[O-])cc1 | inconclusive: 44.7 µM [inhibitor, partial curve, poor fit] | –
O=C1C=C(N2CCN(C3=CC(=O)CCC3)CC2)CCC1 | inconclusive: 3.55 µM [inhibitor, partial curve, poor fit] | –
O=C(c1cc(-c2ccccc2)n[nH]1)N1CCc2c([nH]c3ccccc23)C1c1ccccn1 (stereo not drawn) | inconclusive: 31.6 µM [inhibitor, partial curve] | –
C=CCOC(=O)C1=C(C)Nc2nnnn2C1c1cc(OC)ccc1OC (stereo not drawn) | inconclusive: 0.794 µM [inhibitor, partial curve, poor fit] | –
COc1cc(OC)c(-c2nnc(-c3ccc(OC)c(OC)c3OC)o2)cc1OC | inconclusive: 89.1 µM [inhibitor, single point] | –
Cc1cc(N2CCCCC2)nc2ccc(NC(=O)/C=C/c3ccccc3OC(C)C)cc12 | – | inactive: -30.5%
COc1ccccc1NC(=O)c1cccc(S(=O)(=O)N2CCN(Cc3ccccc3)CC2)c1 | inconclusive: 44.7 µM [inhibitor, partial curve, poor fit] | –
Cc1cc(NS(=O)(=O)c2ccc(NC(=S)NC(=O)/C=C/c3ccccc3)cc2)no1 | inconclusive: 7.94 µM [inhibitor, partial curve, poor fit] | –
Cc1ccc[n+](CC(=O)Nc2cccc([N+](=O)[O-])c2)c1 | inconclusive: 89.1 µM [inhibitor, partial curve, poor fit] | –
CC(O)c1cccc(N=Cc2ccc3ccccc3c2O)c1 (stereo not drawn) | active: 1.78 µM | –
CCN(CC)CCNC(=O)c1ccc(NC(=O)Nc2cccc3ccccc23)cc1 | inconclusive: 89.1 µM [inhibitor, partial curve, poor fit] | –
